These results are taken from article PMC4336329 (PLoS ONE, 2015).

Screen size: about 310,000 compounds; about 14,000 (4.5%) showed an effect of 50% or more. Effects have a minus sign here. This is one part of the list.
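Further: peak tail current of the secondary pulse compared with the same well before compound.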

Chain of human ether-à-go-go-related gene (hERG) potassium channel (Q12809 whole entry, looked up): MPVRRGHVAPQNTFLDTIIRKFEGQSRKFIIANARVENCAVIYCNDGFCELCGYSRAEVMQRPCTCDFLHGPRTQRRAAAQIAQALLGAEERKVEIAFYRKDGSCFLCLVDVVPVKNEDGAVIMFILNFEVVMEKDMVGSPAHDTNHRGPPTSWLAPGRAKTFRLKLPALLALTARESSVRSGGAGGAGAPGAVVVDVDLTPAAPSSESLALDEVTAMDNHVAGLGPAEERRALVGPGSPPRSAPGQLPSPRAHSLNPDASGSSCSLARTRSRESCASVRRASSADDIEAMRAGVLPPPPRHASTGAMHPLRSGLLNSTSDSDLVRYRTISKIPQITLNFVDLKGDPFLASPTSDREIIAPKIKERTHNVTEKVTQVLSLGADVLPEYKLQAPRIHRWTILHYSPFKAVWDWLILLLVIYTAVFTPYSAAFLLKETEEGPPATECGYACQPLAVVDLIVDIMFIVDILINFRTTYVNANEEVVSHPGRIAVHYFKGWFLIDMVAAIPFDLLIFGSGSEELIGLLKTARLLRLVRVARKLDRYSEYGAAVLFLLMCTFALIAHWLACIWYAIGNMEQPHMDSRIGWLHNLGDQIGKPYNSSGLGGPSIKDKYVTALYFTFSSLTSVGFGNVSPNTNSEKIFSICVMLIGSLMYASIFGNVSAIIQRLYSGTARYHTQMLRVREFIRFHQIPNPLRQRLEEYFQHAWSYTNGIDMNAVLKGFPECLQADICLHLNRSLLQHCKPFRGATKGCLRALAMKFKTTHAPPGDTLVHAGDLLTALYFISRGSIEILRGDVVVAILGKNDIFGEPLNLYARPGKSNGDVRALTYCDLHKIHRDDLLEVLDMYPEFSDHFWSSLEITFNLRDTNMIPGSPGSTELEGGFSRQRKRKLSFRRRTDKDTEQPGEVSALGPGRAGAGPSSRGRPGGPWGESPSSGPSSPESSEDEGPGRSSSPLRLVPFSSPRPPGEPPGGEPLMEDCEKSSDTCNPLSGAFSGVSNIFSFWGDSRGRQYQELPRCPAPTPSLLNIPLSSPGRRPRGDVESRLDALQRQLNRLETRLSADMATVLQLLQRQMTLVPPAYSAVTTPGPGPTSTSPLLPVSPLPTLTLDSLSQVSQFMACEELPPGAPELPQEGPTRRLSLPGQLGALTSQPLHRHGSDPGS

This experiment concerns the target human ether-à-go-go-related gene (hERG) potassium channel (human, UniProt Q12809). As to the kind of experiment: primary screen, population patch clamp on CHO cells stably expressing hERG.
Turning to `CC(=O)c1c(C)[nH]c(C(=O)COC(=O)c2cccnc2Cl)c1C`, the “hERG current change (%, negative = inhibition) at 10uM” value was -13.1%.
To `Cc1cc(NC(=O)C(C)SCC(=O)Nc2cc(C(F)(F)F)ccc2N2CCCCC2)no1` (stereo not shown) belongs -19.6%.
To `Cn1c(=O)c2c(nc(N3CCN(C(=O)c4ccco4)CC3)n2CCSc2ncccn2)n(C)c1=O` belongs -57.4%; to `Cc1c(C(=O)CN2CCOCC2)[nH]c2ccccc12`, -2.99%; to `COc1ccc(CN(C(=O)c2nsc(Cl)c2Cl)C(C(=O)NC2CCCC2)c2ccc(C)cc2)cc1` (stereo not shown), -12.4%.
On to `CS(=O)(=O)c1ccc(Cl)c(NC(=O)Nc2ccccc2)c1`, for which the “hERG current change (%, negative = inhibition) at 10uM” value is 11.4%.
With `Nc1c(C(=O)Nc2ccc(Br)cc2)sc2nc(-c3ccco3)ccc12`, the “hERG current change (%, negative = inhibition) at 10uM” value was -1.76%.
To `CN(CCC#N)Cc1cc(=O)oc2ccc3ccccc3c12` belongs -22.7%; to `CC(C)(C)n1nnnc1C(c1ccc(F)cc1)N1CCC(C(N)=O)CC1.Cl` (stereo not shown), 11.3%; to `Brc1ccc(OCc2ccccc2)c(CNCc2ccncc2)c1.Cl`, -19.9%.
Then `COc1ccc(Cc2nnc(Nc3ccc(C)cc3C)[nH]c2=O)cc1`, with 5.84%; and `COc1cccc(CC(=O)OC(C)C(=O)Nc2ccc(Cl)cn2)c1` (stereo not shown), with -23.9%.
In the case of `O=C(CCCNC(=O)c1ccc(Cl)cc1)Nc1ccc(S(=O)(=O)Nc2ncccn2)cc1`, the “hERG current change (%, negative = inhibition) at 10uM” value turned out to be 0.94%.
Then `O=C(N/N=C/c1ccc(Cl)cc1)c1nc2ccc([N+](=O)[O-])cc2c(=O)[nH]1`, with -27.3%; and `Cc1ccc(NC2c3ncccc3C(=O)N2C2CCCCC2)cc1C` (stereo not shown), with -12.6%.
To `O=C(CSc1ncn[nH]1)Nc1ccccc1Sc1ccccc1` belongs -16.1%; to `c1ccc(NCc2nc3ccccc3n2CCOc2ccccc2)cc1`, 9.5%; to `O=c1[nH]c(=O)n(-c2ccc(Br)cc2)c(O)c1C=NCCN1CCCCC1`, 1.9%.
To `CCN(CC)CCOc1ccc(Br)cc1` belongs -38.4%; to `Cc1sc2ncnc(OCC(=O)NC3CCS(=O)(=O)C3)c2c1C` (stereo not shown), 19.9%; to `Cc1ccc(N(CC(=O)NN=C2CCN(C)CC2)S(=O)(=O)c2ccccc2)c(C)c1`, -9.48%.
On to `CC(C)Oc1ccc(CC(=O)NNC(=S)Nc2ccccc2)cc1`, for which the “hERG current change (%, negative = inhibition) at 10uM” value was determined as 20.8%.
To `CCc1noc(C)c1C(=O)Nc1nc(-c2ccc(OC)c(OC)c2)cs1` belongs 6.58%; to `Cc1cc(C)c2c(C(C)(C)C)nn(-c3ccccc3)c2n1`, 18.2%.
For the compound `COc1ccccc1NC(=O)CN(Cc1ccccc1)S(C)(=O)=O`, the “hERG current change (%, negative = inhibition) at 10uM” value is listed as -5.11%.
`CCCn1c(=S)[nH]c2cc(OC)c(OC)cc2c1=O`: the “hERG current change (%, negative = inhibition) at 10uM” value is listed as -5.68%.
On to `CCOC(=O)c1ccccc1NC(=O)c1ccc(Cl)c(S(=O)(=O)N2CCOCC2)c1`, for which the “hERG current change (%, negative = inhibition) at 10uM” value is listed as -6.83%.
Then `Cn1c(CNC(=O)CCNC(=O)c2cccc(F)c2)cc(=O)n(C)c1=O`, with 9.81%; and `CC(=O)Oc1ccc(/C=C2/SC(=S)N(Cc3ccccc3)C2=O)cc1`, with 10.2%; and `CCC1=C(OC(=O)N(CC)CC)N2C(=O)OC(=NCC(=O)OC)[C@]2(Cc2ccccc2)[C@H]2C1=CC[C@H]1C(=O)N(CC(=O)OC)C(=O)[C@H]12`, with -9.16%.
Consider `Cc1cccc(NS(=O)(=O)c2nnc(NC(=O)c3ccccc3F)s2)c1`, for which the “hERG current change (%, negative = inhibition) at 10uM” value was determined as 1.06%.
To `COc1ccc2[nH]cc(C(=O)C(=O)N3CCCCC3)c2c1` belongs 5.35%; to `O=C(COC(=O)CCN=C1NS(=O)(=O)c2ccccc21)NNC(=O)c1ccc(Cl)cc1`, 0.0983%.
Then `N#Cc1c(N2CCCCC2)nc(N2CCCCC2)c2c1CCN(Cc1ccccc1)C2`, with -3.12%; and `Cc1ccc(-n2nnc3c(=O)n(Cc4cccc(C)c4)cnc32)cc1`, with 7.66%; and `O=C(N/N=C\C=C\c1ccc([N+](=O)[O-])o1)c1cccs1`, with 6.16%.
Turning to `CCCSC1=C(C#N)C2(CCCCC2)C(C#N)=C(N)N1`, the “hERG current change (%, negative = inhibition) at 10uM” value is 27.9%.
Then `CC(=O)NCCC(=O)Nc1cc(S(=O)(=O)N2CCOCC2)ccc1N1CCCC1`, with 17.5%; and `CN(C)S(=O)(=O)N1CCc2ccc(NC(=O)c3ccc(C(F)(F)F)cc3)cc2C1`, with 25.4%; and `CC(=O)c1c(C(C)=O)c(C)n(NC(=O)c2ccccc2Cl)c1C`, with 9.86%.
With `CCN(C(=O)c1cc(Cl)ccc1OC)c1ccccc1`, the “hERG current change (%, negative = inhibition) at 10uM” value worked out at 2.78%.
Then `COC(CNC(=O)[C@H](Cc1ccccc1)N1Cc2ccccc2C1=O)OC`, with 10.1%.
To `CCCNC(=O)N1[C@H]2CC[C@@H]1C(C(=O)OC)=C(c1c(C)noc1C)C2` belongs 16.4%; to `CCOc1cc(Br)ccc1S(=O)(=O)N1CCC(C(N)=O)CC1`, -5.26%.
To `O=C(Nc1cc(N2CCOCC2)ncn1)c1ccc(F)cc1` belongs -9.31%.
`O=C(c1ccc(N2CCOCC2)nc1)N1CCOCC1`: the “hERG current change (%, negative = inhibition) at 10uM” value came to 6.45%.
For `CCN(CC)C(=O)CSc1nc(O)cc(=O)n1CC`, the “hERG current change (%, negative = inhibition) at 10uM” value came out at 5.51%.
To `CCN(CC)C(=O)C1CCCN(C(=O)Nc2ccccc2)C1` (stereo not shown) belongs -6.28%; to `N#CC1=C(S)N(c2ccccc2)C(c2ccc(-c3ccccc3Cl)o2)NC1=O` (stereo not shown), 13.1%.
Consider `CCN(Cc1ccncc1)C(=O)c1cc(COc2c(F)cccc2F)on1`, for which the “hERG current change (%, negative = inhibition) at 10uM” value is given as -36%.
For the compound `O=C(C1CCN(S(=O)(=O)c2ccc(Cl)cc2)CC1)N1CCC1`, the “hERG current change (%, negative = inhibition) at 10uM” value was determined as 2.3%.
Then `CCC(C)NC(=O)c1ccc(-n2c(=S)[nH]c3ccccc3c2=O)cc1` (stereo not shown), with 26.8%; and `CCC(=O)c1cc(F)ccc1OCC(=O)Nc1ccc2c(c1)OCCO2`, with -1.84%.
To `Cn1c(=O)c2[nH]c(=O)cnc2n(C)c1=S` belongs 20.7%.
To `Cc1ccccc1Oc1ncnc2oc(-c3ccccc3)cc12` belongs 20.4%; to `CCC1=NN(C(=O)c2ccc(Cl)cc2)C(O)(c2ccc(C)cc2)C1` (stereo not shown), -0.418%.
Take `Cc1nnc(NC(=O)CSC2CCCCC2)s1`: the “hERG current change (%, negative = inhibition) at 10uM” value is recorded as -1.03%.
Consider `COCc1c(C(=O)OC)nnn1-c1ccccc1`, for which the “hERG current change (%, negative = inhibition) at 10uM” value was -3.86%.
In the case of `O=C(Nc1nnc(-c2ccccn2)o1)c1ccc(Br)cc1`, the “hERG current change (%, negative = inhibition) at 10uM” value worked out at 4.65%.
To `CN1C(=O)/C(=C/c2ccccc2F)Sc2ccc(C(=O)NCC3CCCO3)cc21` (stereo not shown) belongs -25.9%.
For the compound `O=C(c1cn(-c2ccccc2)nc1-c1ccc(Cl)s1)N1CCOCC1`, the “hERG current change (%, negative = inhibition) at 10uM” value is given as -20.9%.
For `CCN1CCN(Cc2ccc(NC(=O)c3ccc(C)c(NC(=O)c4ccnnc4)c3)cc2C(F)(F)F)CC1`, the “hERG current change (%, negative = inhibition) at 10uM” value came out at 13%.
Then `O=C(Nc1ccccc1)Nc1nnc(CSCc2ccccc2Cl)s1`, with 6.19%; and `CN(CC(=O)Nc1ccc(F)cc1)C(=O)c1ccccc1OCc1ccc(F)cc1`, with -3.3%.
With `C=CCc1ccc(OC)cc1`, the “hERG current change (%, negative = inhibition) at 10uM” value is 9.91%.
Then `CC1CCC(C(=O)NC(C(=O)Nc2ccccn2)C(C)C)CC1` (stereo not shown), with 9.1%.
On to `Cl.Nc1c2c(nc3ccccc13)CCCC2.O`, for which the “hERG current change (%, negative = inhibition) at 10uM” value is reported as -42.3%.
`Cc1oc(-c2ccccc2)cc1C(=O)NC1CCN(Cc2ccccc2)CC1`: the “hERG current change (%, negative = inhibition) at 10uM” value amounted to 11.1%.
To `CC1(C)CC(=O)C=C(C(=O)N2CCCC(C(=O)c3cccc(Cl)c3)C2)O1` (stereo not shown) belongs -31%; to `O=C(CSC1c2ccccc2-c2ccccc21)N/N=C/c1ccccc1C(=O)O`, -9.61%; to `O=C(Nn1c(Cc2cccs2)nc2ccccc2c1=O)c1ccc(F)c(F)c1`, 18.1%.
On to `Cc1ccc(N2CCN(C(=O)c3nn(C)c4c3CS(=O)(=O)c3ccccc3-4)CC2C)cc1` (stereo not shown), for which the “hERG current change (%, negative = inhibition) at 10uM” value is given as -30.3%.
To `COc1ccc(-c2oc(NC(C)=O)c(C#N)c2-c2ccc(OC)cc2)cc1` belongs -5.55%.
To `COc1ccc(/C=N/N2C(=O)c3ccccc3C2=O)cc1` belongs 2.53%.
In the case of `COc1ccc(-c2nc3c(s2)CN(S(C)(=O)=O)CC3)cc1OC`, the “hERG current change (%, negative = inhibition) at 10uM” value turned out to be 15.2%.
To `CC(=O)c1ccc(OCc2cc(C(=O)NCCn3nc(C)cc3C)no2)cc1` belongs 1.56%; to `CC(C)(C)CNC(=O)[C@]1(C)CCC[C@@]2(C)C3CC[C@@]4(C)C[C@]3(CCC21)CC4=O` (stereo partly shown), -0.0524%.
Then `COc1ccc(OCC(O)Cn2c(=N)n(Cc3ccccc3)c3ccccc32)cc1.Cl` (stereo not shown), with -73.5%.
With `C=CCc1ccc(OCCCCN2CC(C)OC(C)C2)c(OC)c1.O=C(O)C(=O)O` (stereo not shown), the “hERG current change (%, negative = inhibition) at 10uM” value is on record as -25.8%.
As for `O=C(Cc1ccccc1)NC(=S)Nc1cc(C(F)(F)F)ccc1Cl`, the “hERG current change (%, negative = inhibition) at 10uM” value is listed as 13.8%.
`Cc1ccc(-c2cnc3ccccc3n2)cc1C`: the “hERG current change (%, negative = inhibition) at 10uM” value amounted to 5.03%.
Consider `CN(C)c1nc2n(c(=O)n1)C(C#N)CS2` (stereo not shown), for which the “hERG current change (%, negative = inhibition) at 10uM” value is reported as 0.755%.
Turning to `Cc1ccc(C)c(C2=CSC3=NS(=O)(=O)CCN23)c1`, the “hERG current change (%, negative = inhibition) at 10uM” value amounted to 12.3%.
Then `CC(=O)c1ccc(OCc2cc(C(=O)N(C)Cc3ncc(C)[nH]3)no2)cc1`, with 0.177%.
As for `O=c1nc(Nc2ccccc2)oc2ccccc12`, the “hERG current change (%, negative = inhibition) at 10uM” value worked out at 2.79%.
`CCCC(=O)Nc1ccc(C)c(O)c1`: the “hERG current change (%, negative = inhibition) at 10uM” value was determined as 4.76%.
Consider `COc1ccc(CCNCC(=O)Nc2ccc(C)c(Br)c2)cc1OC.Cl`, for which the “hERG current change (%, negative = inhibition) at 10uM” value is given as -33.1%.
Then `Nc1c(S(=O)(=O)c2cccs2)c2nc3ccccc3nc2n1/N=C/c1cccc(O)c1`, with 2.57%.
